# Results taken from PubChem BioAssay AID504332 (National Center for Advancing Translational Sciences (NCATS), 2011).
# The whole screen tested about 350,000 compounds, of which about 31,000 (8.9%) were called active. This list was built around the results that the source calls inconclusive (neither active nor inactive); the mix of calls is not that of the screen. Calls follow the shape of the dose curve; as a rule, active = well fitted inhibition curve with a large enough effect; inconclusive = small, poorly fitted or top-dose-only effect; inactive = no such curve, though single readings can be large or run the other way. Potencies of inconclusive entries are doubtful fits and often do not repeat.
# Biological target: Histone-lysine N-methyltransferase EHMT2 (Homo sapiens) (UniProt Q96KQ7)
# UniProt Q96KQ7, sequence (Q96KQ7 whole entry, looked up): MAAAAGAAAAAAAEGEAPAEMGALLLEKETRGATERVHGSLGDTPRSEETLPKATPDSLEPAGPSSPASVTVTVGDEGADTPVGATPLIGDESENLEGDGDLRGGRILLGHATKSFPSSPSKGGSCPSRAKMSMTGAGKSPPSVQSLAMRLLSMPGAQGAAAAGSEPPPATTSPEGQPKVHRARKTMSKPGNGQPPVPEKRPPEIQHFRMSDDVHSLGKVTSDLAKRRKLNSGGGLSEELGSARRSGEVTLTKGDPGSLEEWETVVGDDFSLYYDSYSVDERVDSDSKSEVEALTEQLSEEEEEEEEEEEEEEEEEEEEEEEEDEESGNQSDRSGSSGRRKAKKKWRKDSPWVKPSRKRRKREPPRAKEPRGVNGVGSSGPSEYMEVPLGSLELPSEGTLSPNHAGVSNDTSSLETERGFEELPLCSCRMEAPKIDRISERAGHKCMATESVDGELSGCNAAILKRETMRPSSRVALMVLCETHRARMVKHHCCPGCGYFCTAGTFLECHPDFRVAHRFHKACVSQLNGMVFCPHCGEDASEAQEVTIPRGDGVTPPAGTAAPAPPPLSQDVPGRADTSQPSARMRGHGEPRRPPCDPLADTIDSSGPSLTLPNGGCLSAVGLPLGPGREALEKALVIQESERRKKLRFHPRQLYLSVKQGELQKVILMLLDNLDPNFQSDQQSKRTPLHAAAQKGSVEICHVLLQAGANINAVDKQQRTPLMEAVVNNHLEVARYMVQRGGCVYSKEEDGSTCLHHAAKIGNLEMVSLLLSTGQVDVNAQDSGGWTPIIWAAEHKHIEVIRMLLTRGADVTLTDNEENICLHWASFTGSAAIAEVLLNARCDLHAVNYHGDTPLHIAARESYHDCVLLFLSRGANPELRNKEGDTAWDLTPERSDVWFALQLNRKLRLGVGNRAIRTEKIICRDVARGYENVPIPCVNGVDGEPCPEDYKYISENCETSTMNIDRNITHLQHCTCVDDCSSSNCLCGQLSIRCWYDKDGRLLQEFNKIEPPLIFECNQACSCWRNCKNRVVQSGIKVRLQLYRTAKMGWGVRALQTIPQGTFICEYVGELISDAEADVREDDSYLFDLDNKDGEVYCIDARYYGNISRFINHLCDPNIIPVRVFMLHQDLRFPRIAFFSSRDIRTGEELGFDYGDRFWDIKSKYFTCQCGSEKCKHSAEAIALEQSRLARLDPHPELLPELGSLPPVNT
# Experiment: qHTS Assay for Inhibitors of Histone Lysine Methyltransferase G9a; also: nearly all actives have a fitted effect of over 75% in size
# Details: G9a H3K9 monomethylation, AlphaScreen, 2 h; activity, negative = inhibition: at 59 µM (top of the series) unless noted
# How it was run: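 Quantitative HTS format: methyltransferase activity on a biotin-tagged H3K9 peptide is measured by AlphaScreen, using a rabbit anti-monomethyl-H3K9 antibody with streptavidin donor and anti-IgG acceptor beads. Final levels are 20 nM enzyme, 500 nM peptide, 20 uM SAM; 2 h RT.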
# % is scaled to controls: 0 for no effect and ±100 for the full control effect; potency is read from the fitted curve at half-maximal effect; tags tell the direction and shape of the fitted curve.
Structure (SMILES),Potency,"activity, negative = inhibition"
O=C(CN1C(=O)c2cccnc2Oc2ccc(Cl)cc21)NCCCN1CCCCC1,inactive,–
COc1cc2c(C(=O)N3CCN(c4cccc(Cl)c4)CC3)cn(C)c(=O)c2cc1OC,inactive,–
COc1cc(CN2CC(=O)N(c3cc(Cl)ccc3C)C2=S)cc(OC)c1OC,"inconclusive: 56.2 µM [inhibitor, partial curve, poor fit]",–
COc1ccc(OC)c(C2C(C(C)=O)=C(O)C(=O)N2c2ccc(O)cc2)c1 (configuration not stated),"inconclusive: 0.316 µM [inhibitor, full curve, poor fit]",–
CCn1cc(C(=O)OCC(=O)c2cc(C)n(-c3ccccc3F)c2C)c(=O)c2ccc(C)nc21,inactive,–
CCOC(=O)/C(C#N)=N\Nc1ccc(S(=O)(=O)Nc2nc(C)cc(C)n2)cc1,"inconclusive: 15.8 µM [inhibitor, partial curve, poor fit]",–
COc1ccc(N2C(=O)CS/C2=N\C(=S)Nc2ccccc2)cc1,"inconclusive: 44.7 µM [inhibitor, partial curve, poor fit]",–
CC(C)C(=O)Nc1ccccc1C(=O)OCc1cc(=O)n2nc(C3CC3)sc2n1,"inconclusive: 0.708 µM [inhibitor, partial curve, poor fit]",–
OC1(c2ccc(Br)cc2)CCNCC1,"inconclusive: 50.1 µM [inhibitor, partial curve]",–
O=C(Nc1ccc2nc(SCCOc3ccccc3)sc2c1)c1ccco1,inactive,–
O=C(c1ccccc1)c1c(O)cc(-c2ccccc2)oc1=O,"inconclusive: 15.8 µM [inhibitor, single point]",–
COc1cc(/C=C2\C(=O)N(c3ccc(NC(C)=O)cc3)N=C2c2ccccc2)ccc1O,active: 44.7 µM,–
COc1ccccc1NS(=O)(=O)NC(=O)c1c(C)[nH]c2ccccc12,"inconclusive: 70.8 µM [inhibitor, single point]",–
COc1cccc(CCNC(=O)c2ccc(Cn3c(SCc4ccccc4)nc4cccnc43)cc2)c1,"inconclusive: 2.24 µM [inhibitor, partial curve, poor fit]",–
CCOc1ccc(NC(=O)NC(C)c2c(-n3cccc3)sc3c2CCN(CC)C3)cc1 (configuration not stated),"inconclusive: 25.1 µM [inhibitor, single point]",–
CC(C)(CNC(=O)c1cccc(S(=O)(=O)Nc2ccc(Br)cc2)c1)N1CCOCC1,"inconclusive: 35.5 µM [inhibitor, full curve]",–
COc1ccccc1-n1cnnc1SCC(=O)Nc1ncc(Cl)cc1Cl,inactive,–
COc1ccc(CCNC(=O)c2cnn(-c3ccc(C)c(C)c3)c2NC(=O)c2ccco2)cc1OC,inactive,–
COCCNc1nc2nonc2nc1N(C)Cc1ccc(C)cc1,"inconclusive: 50.1 µM [inhibitor, single point]",–
CCN1C(=O)C(CC(=O)Nc2ccccc2)S/C1=N\c1ccccn1 (configuration not stated),"inconclusive: 28.2 µM [inhibitor, partial curve, poor fit]",–
CC(C)[C@@H]1CC[C@@H](C)C[C@@H]1P(=O)(c1ccccc1)c1ccccc1,"inconclusive: 8.91 µM [inhibitor, partial curve]",–

Structure (SMILES),Potency,"activity, negative = inhibition"
COCCCn1c(SC(C)C(=O)Nc2c(C)n(C)n(-c3ccccc3)c2=O)n[nH]c1=O (configuration not stated),"inconclusive: 89.1 µM [inhibitor, single point]",–
CCOc1ccc(Nc2nc(N)c([N+](=O)[O-])c(N3CCN(CC)CC3)n2)cc1,–,inactive: -10.7% [at 2.33 µM]
COCCN(C(=O)CN1CCc2ccccc2C1)c1c(N)n(Cc2ccccc2)c(=O)[nH]c1=O,active: 39.8 µM,–
O=C(CN1C(=O)NC2(CCOc3ccccc32)C1=O)Nc1ccc2c(c1)OCCO2 (configuration not stated),"inconclusive: 79.4 µM [inhibitor, single point]",–
CCN(C(=O)COC(=O)/C=C/c1ccc(S(=O)(=O)N2CCc3ccccc32)cc1)C1CCS(=O)(=O)C1 (configuration not stated),"inconclusive: 44.7 µM [inhibitor, partial curve, poor fit]",–
CCN1CCN(C(=O)NCc2ccccc2)CC1,active: 22.4 µM,–
CCOC(=O)NC1(NCc2ccccc2)Oc2ccccc2O1,–,inconclusive: -114% [inhibitor] [at 12.7 µM]
COc1ccc(C(=O)Nn2c(SCC(=O)NCc3ccco3)nc3ccccc3c2=O)cc1,"inconclusive: 8.91 µM [inhibitor, single point]",–
COc1cccc(N2CCN(CC(=O)Nc3nc4c(s3)CC(C)CC4)CC2)c1 (configuration not stated),"inconclusive: 3.16 µM [inhibitor, single point]",–
CC(C)(C)OC(=O)N[C@@H](Cc1ccccc1)c1nnc(SCC(=O)O)o1,"inconclusive: 89.1 µM [inhibitor, single point]",–
Brc1ccc(CNCCCSc2nnnn2-c2ccccc2)cc1,inactive,–
CC(=O)Nc1nnc(COc2ccc(Cl)cc2)s1,"inconclusive: 79.4 µM [inhibitor, single point]",–
Nc1ccc2nc(CCCCCCCCc3nc4ccc(N)cc4[nH]3)[nH]c2c1,active: 31.6 µM,–
CCOc1ccccc1OCc1nn2c(COc3ccccc3)nnc2s1,–,inconclusive: -119% [inhibitor] [at 12.7 µM]
Nc1ncnc(Oc2cccc3cccnc23)c1[N+](=O)[O-],"inconclusive: 3.55 µM [inhibitor, full curve, poor fit]",–
COCCCNC(=O)c1cccc(NC(=O)c2ccccc2)c1,"inconclusive: 1.58 µM [inhibitor, full curve]",–
CO/C([O-])=N/c1c[n+](-c2ccc(Cl)cc2)no1,"inconclusive: 28.2 µM [inhibitor, single point]",–
COCC(C)NC(=O)C(C)Oc1ccccc1 (configuration not stated),"inconclusive: 0.891 µM [inhibitor, full curve]",–
Cc1ccc(-c2cc(-c3ccccc3)nc(N)c2C#N)o1,"inconclusive: 89.1 µM [inhibitor, single point]",–
COC(=O)c1ccc(NS(=O)(=O)c2cc3c4c(c2)C(C)C(=O)N4CCC3)cc1 (configuration not stated),"inconclusive: 79.4 µM [inhibitor, single point]",–
C=CCn1c(O)c(N=NC(=S)Nc2ccccc2C)c2cc(S(=O)(=O)N3CCOCC3)ccc21,"inconclusive: 79.4 µM [inhibitor, single point]",–
